# According to the supplement of paper PMC9446081:
# The campaign covered roughly 39,000 compounds. About 220 (0.56%) showed activity. Some of the results follow.
# Test system: Escherichia coli K-12 BW25113
# Assay: relative growth (OD600 normalised to plate interquartile mean) (fraction); higher = less growth inhibition, active = 0.2 or less
# Conditions: 50 µM; LB; incubation time: overnight (16-24 h)
# 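Also: static incubation at 37 °C against the wild-type strain, values averaged over two biological replicates.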
row,Structure (SMILES),relative growth
1,CC1(C)C2CCC1(C)C(O)C2 (configuration not stated),inactive: 0.908
2,N[C@H](C(=O)O)c1ccc(C(=O)O)c(C(=O)O)c1,inactive: 1
3,O=C(Nc1cccc2cccnc12)[C@@H]1[C@H](c2ccc(Br)cc2)CC(=O)N1C(=O)OCc1ccccc1,inactive: 1.02
4,O=C(C[C@H]1C[C@H]2c3cc(NC(=O)Nc4ccc(C(F)(F)F)cc4)ccc3O[C@H]2[C@H](CO)O1)NC1CCCCC1,inactive: 1.01
5,O=C(Nc1nc(OCCN2CCCC2=O)cnc1-c1cc(Cl)cc(Cl)c1)c1cc2ccccc2s1,inactive: 1.01
6,Cc1ccc(CNS(=O)(=O)N(C)C)cc1,inactive: 0.983
7,CC(C)CC#Cc1ccc2c(c1)O[C@H](CN(C)C(=O)C1CCOCC1)[C@@H](C)CN([C@H](C)CO)S2(=O)=O,inactive: 0.959
8,CN(C)CCOC(=O)C(c1ccccc1)C1(O)CCCC1.Cl (configuration not stated),inactive: 1.06
9,COCC(=O)Nc1c(I)c(C(=O)NC[C@@H](O)CO)c(I)c(C(=O)N(C)C[C@@H](O)CO)c1I,inactive: 0.976
10,CC(C)(C)CC(=O)N1C[C@@H]2c3nc(N4CCOCC4)ncc3CS(=O)(=O)[C@H]2C1,inactive: 0.995
11,Nc1ccn([C@@H]2O[C@H](CO)[C@@H](O)[C@H]2O)c(=S)n1,inactive: 0.94
12,NCC[C@@H]1CC[C@H](NC(=O)c2ccccc2F)[C@H](CO)O1,inactive: 1.01
13,O=S(=O)(NCC[C@@H]1CC[C@@H](NS(=O)(=O)c2ccccc2Cl)[C@@H](CO)O1)c1ccc(Cl)cc1,inactive: 0.969
14,C[C@H](CO)N1C[C@H](C)[C@@H](CN(C)C(=O)Nc2ccc(C(F)(F)F)cc2)Oc2ccc(NC(=O)CCC(F)(F)F)cc2CC1=O,inactive: 0.941
15,C[C@H](CO)N1C[C@H](C)[C@@H](CN(C)C(=O)CCN2CCCCC2)Oc2ncc(C#Cc3ccccn3)cc2C1=O,inactive: 1.02
16,CCc1nc2ccc(C(=O)Nc3cc(-c4ccccc4)ccc3OC)cn2c1N(CCN(C)C)CC1CC1,inactive: 0.974
17,C[C@@H]1CCCCO[C@H](CN(C)S(=O)(=O)c2ccccc2)[C@@H](C)CN([C@@H](C)CO)C(=O)c2cc(NC(=O)Nc3cccc4ccccc34)ccc2O1,inactive: 1.05
18,COc1ccc(S(=O)(=O)Nc2ccc3c(c2)C(=O)N([C@@H](C)CO)C[C@H](C)[C@H](CN(C)S(=O)(=O)c2ccc(OC)cc2)O3)cc1,inactive: 1.01
19,COCC(=O)N1C[C@H](C)[C@H](OC)CN(C)C(=O)c2cc(NC(=O)c3ccc(OC)cc3)ccc2OC[C@H]1C,inactive: 1.02
20,CN1C(=O)[C@@H]2CN(c3ncccn3)C[C@@H]2C12CCN(S(C)(=O)=O)CC2,inactive: 0.946
21,C[C@@H]1CN([C@H](C)CO)C(=O)Cc2cc(NC(=O)CCC(F)(F)F)ccc2O[C@H]1CN(C)S(C)(=O)=O,inactive: 0.993

row,Structure (SMILES),relative growth
1,CC(C)CC#Cc1ccc2c(c1)O[C@@H](CN(C)CC1CCOCC1)[C@@H](C)CN([C@H](C)CO)S2(=O)=O,inactive: 1.03
2,C[C@H](CO)N1C[C@H](C)[C@H](CN(C)C(=O)Nc2ccc3c(c2)OCO3)Oc2ncc(-c3cncnc3)cc2C1=O,inactive: 1.02
3,Cc1cc(C(=O)Nc2cccc3c2O[C@@H](CN(C)S(=O)(=O)c2ccccc2)[C@H](C)CN([C@@H](C)CO)C3=O)n(C)n1,inactive: 1.01
4,C[C@@H]1CN([C@H](C)CO)C(=O)c2cc(NC(=O)CCCCCC(=O)Nc3ccccc3N)ccc2O[C@@H]1CN(C)S(=O)(=O)c1cn(C)cn1,inactive: 0.997
5,CC1(C)C(=O)NCCN1C(=O)C1CC1,inactive: 1
6,O[C@H]1[C@H](O)[C@@H](O)[C@H](O)[C@@H](O)[C@H]1O,inactive: 1.01
7,C[C@H](CO)N1C[C@H](C)[C@@H](CN(C)C(=O)Nc2cccc3ccccc23)Oc2ccc(NS(=O)(=O)c3ccc(F)cc3)cc2C1=O,inactive: 1.01
8,CN1C(=O)c2cc(NC(=O)C3CCC3)ccc2OC[C@H]2O[C@H](CC(=O)NCCc3ccncc3)CC[C@@H]21,inactive: 0.978
9,C[C@H]1CN([C@@H](C)CO)C(=O)Cc2cc(NC(=O)CCCCCC(=O)Nc3ccccc3N)ccc2O[C@H]1CN(C)Cc1ccc(C(F)(F)F)cc1,inactive: 1.02
10,C[C@@H]1CN([C@@H](C)CO)C(=O)c2cc(NS(=O)(=O)c3cn(C)cn3)ccc2O[C@@H](C)CCCCO[C@H]1CN(C)C(=O)CCCN(C)C,inactive: 0.97
11,Nc1ccc(S(=O)(=O)[N-]c2cnc3ccccc3n2)cc1.[Na+],inactive: 0.994
12,C[C@H]1CN([C@@H](C)CO)C(=O)c2cc(NC(=O)CCN3CCOCC3)ccc2O[C@@H]1CN(C)Cc1ccc(C(=O)O)cc1,inactive: 1
13,C#CCN([C@H](/C=C/C1CC1)[C@@H](O)Cc1ccccc1)[C@@H](Cc1ccc(-n2cc(COc3ccccc3/C=C(C)/C=C/C(=O)NO)nn2)cc1)C(=O)OC,inactive: 0.983
14,CC(=O)Nc1cccc(S(N)(=O)=O)c1,inactive: 0.995
15,Cc1ccc(S(=O)(=O)N(C)C[C@H]2Oc3ccc(NC(=O)Nc4ccc(C(F)(F)F)cc4)cc3C(=O)N([C@@H](C)CO)C[C@H]2C)cc1,inactive: 1.01
16,C[C@@H]1O[C@@H](O[C@@H]2[C@@H](O)[C@H](OCCc3ccc(O)c(O)c3)O[C@H](CO)[C@H]2OC(=O)/C=C/c2ccc(O)c(O)c2)[C@H](O)[C@H](O)[C@H]1O,inactive: 0.993
17,Cc1ccc(S(=O)(=O)N2C[C@H](O)COC[C@@H]3O[C@@H](CC(=O)NCc4ccc5c(c4)OCO5)CC[C@H]32)cc1,inactive: 1.03
18,CC(C)NC(=O)Nc1ccc2c(c1)C(=O)N([C@@H](C)CO)C[C@@H](C)[C@@H](CN(C)CC1CCCCC1)OCCCC[C@@H](C)O2,inactive: 0.997
19,C[C@H](CO)N1C[C@H](C)[C@@H](CN(C)S(=O)(=O)c2ccccc2)Oc2ccc(NC(=O)c3ccncc3)cc2C1=O,inactive: 1.01
20,COc1ccc(S(=O)(=O)Nc2cccc3c2O[C@@H](CN(C)S(=O)(=O)c2ccc(OC)cc2)[C@@H](C)CN([C@@H](C)CO)C3=O)cc1,inactive: 1.01
21,COc1ccc(NC(=O)N(C)C[C@@H]2Oc3ccc(NC(=O)Nc4ccc(C(F)(F)F)cc4)cc3C(=O)N([C@H](C)CO)C[C@@H]2C)cc1,inactive: 0.981

row,Structure (SMILES),relative growth
1,COc1cc2c(cc1OC)C1Cc3ccc(OC)c(OC)c3CN1CC2 (configuration not stated),inactive: 1.12
2,C[C@H](CO)N1C[C@H](C)[C@H](CN(C)S(=O)(=O)c2ccc(F)cc2)OCCCC[C@H](C)Oc2ccc(NC(=O)Nc3ccc4c(c3)OCO4)cc2C1=O,inactive: 1
3,C[C@H](O)C#Cc1ccc2c(c1)O[C@@H](CN(C)C(=O)C1CCCCC1)[C@@H](C)CN([C@@H](C)CO)S2(=O)=O,inactive: 1.01
4,CC(=O)N1CC2(CCN(CC(=O)N3CCOCC3)CC2)C[C@@H]1C(=O)O,inactive: 1.02
5,C[C@H]1CN([C@@H](C)CO)S(=O)(=O)c2ccc(C#CCC3CCCC3)cc2O[C@@H]1CN(C)C(=O)c1cnccn1,inactive: 1.04
6,CN1CCN(C(=O)C[C@@H]2CC[C@H]3[C@H](COc4ccc(NC(=O)c5cccs5)cc4C(=O)N3C)O2)CC1,inactive: 0.979
7,C[C@H]1CN([C@@H](C)CO)S(=O)(=O)c2ccc(C#CC3(O)CCCC3)cc2O[C@@H]1CN(C)C(=O)c1cccnc1,inactive: 0.992
8,Cc1ccc(S(=O)(=O)N(C)C[C@H]2Oc3c(NS(=O)(=O)c4ccc(F)cc4)cccc3C(=O)N([C@@H](C)CO)C[C@@H]2C)cc1,inactive: 0.997
9,CN1CCN(C(=O)C[C@H]2CC[C@H]3[C@@H](COC[C@@H](O)CN3Cc3ccc4c(c3)OCO4)O2)CC1,inactive: 0.845
10,Cc1noc(C)c1NC(=O)Nc1ccc2c(c1)C(=O)N([C@H](C)CO)C[C@H](C)[C@H](CN(C)C(=O)Nc1ccc(F)cc1)OCCCC[C@H](C)O2,inactive: 0.978
11,C[C@@H]1CN([C@@H](C)CO)S(=O)(=O)c2ccc(C#CC3(O)CCCC3)cc2O[C@H]1CN(C)C(=O)Cc1ccncc1,inactive: 1.03
12,Cc1ccc(S(=O)(=O)N(C)C[C@@H]2Oc3cc(Br)ccc3S(=O)(=O)N([C@H](C)CO)C[C@H]2C)cc1,inactive: 1.03
13,Cc1ccc(S(=O)(=O)Nc2ccc3c(c2)C(=O)N([C@H](C)CO)C[C@H](C)[C@H](CN(C)Cc2ccc(C(=O)O)cc2)OCCCC[C@@H](C)O3)cc1,inactive: 1
14,COc1ccc(CN(C)C[C@H]2Oc3ccc(NC(=O)Cn4cnnn4)cc3C(=O)N([C@@H](C)CO)C[C@@H]2C)cc1,inactive: 0.998
15,COc1ccc(NC(=O)N(C)C[C@@H]2Oc3c(NS(=O)(=O)c4cn(C)cn4)cccc3C(=O)N([C@@H](C)CO)C[C@@H]2C)cc1,inactive: 0.998
16,C[C@H]1CN([C@@H](C)CO)S(=O)(=O)c2ccc(-c3ccncc3)cc2O[C@@H]1CN(C)C(=O)c1ccc2c(c1)OCO2,inactive: 0.998
17,C[C@@H]1CN([C@H](C)CO)C(=O)c2c(c3ccccc3n2C)-c2ccccc2CO[C@@H]1CN(C)C(=O)c1ccc(F)cc1,inactive: 1.01
18,C[C@H]1CN([C@@H](C)CO)C(=O)c2cc(-c3cccc(C(=O)N(C)C)c3)cnc2O[C@@H]1CN(C)S(=O)(=O)c1ccc(F)cc1,inactive: 0.975
19,C[C@H]1CCCCO[C@@H](CN(C)S(=O)(=O)c2ccccc2)[C@@H](C)CN([C@@H](C)CO)C(=O)c2cc(NC(=O)c3ccccc3)ccc2O1,inactive: 0.992
20,Cc1noc(C)c1NC(=O)N(C)C[C@@H]1Oc2ccc(NC(=O)C3CC3)cc2CC(=O)N([C@H](C)CO)C[C@H]1C,inactive: 0.962
